Laboratory results: the antibiotic and cytotoxicity screens of Wong et al. (2023)
This is one part of the list.

What was measured:
HSkMC = human skeletal muscle cells; test: cytotoxicity call (relative viability < 0.9); details: 10 µM
HepG2 = test: cytotoxicity call (relative viability < 0.9); details: 10 µM
S. aureus RN4220 = test: growth inhibition call (relative growth <= 0.2); details: 50 µM

Structure (SMILES) | cytotoxicity call (HSkMC) | cytotoxicity call (HepG2) | growth inhibition call (S. aureus RN4220)
C[C@@H](CO)N1C(=O)[C@@H]2[C@H]3C(=O)OCCC=C[C@H]3O[C@]23C=CCN(CCN2CCOCC2)C(=O)[C@@H]13 | inactive | inactive | inactive
C[C@@H]1CN([C@@H](C)CO)C(=O)Cc2cc(NC(=O)Cn3cnnn3)ccc2O[C@@H]1CN(C)C(=O)Nc1cccc2ccccc12 | inactive | inactive | inactive
CC(=O)Nn1cc(C(=O)O)c2ccccc2c1=O | inactive | inactive | inactive
C[C@@H]1CN([C@@H](C)CO)C(=O)Cc2cc(NC(=O)Cc3cn(C)c4ccccc34)ccc2O[C@@H]1CN(C)S(C)(=O)=O | inactive | inactive | inactive
C[C@@H]1CN([C@H](C)CO)C(=O)c2cc(NC(=O)C3CCCCC3)ccc2O[C@@H](C)CCCCO[C@@H]1CN(C)C(=O)c1ccccc1 | inactive | inactive | inactive
C[C@@H]1CCCCO[C@H](CN(C)Cc2ccncc2)[C@H](C)CN([C@@H](C)CO)C(=O)c2cc(NC(=O)Nc3ccc4c(c3)OCO4)ccc2O1 | inactive | inactive | inactive
CC(=O)n1cc([C@H]2C=C(C(=O)N3CCCCCCC3)O[C@@H](OCc3ccc(COC(=O)NCCCCCC(=O)NO)cc3)C2)c2ccccc21 | inactive | inactive | inactive
NNC(=O)c1c(O)c2c([nH]c1=O)CCCC2 | inactive | inactive | inactive
COCCNC(=O)C[C@@H]1C[C@@H]2c3cc(NC(=O)Nc4ccc(C(F)(F)F)cc4)ccc3O[C@@H]2[C@H](CO)O1 | inactive | inactive | inactive
C[C@@H]1CN([C@H](C)CO)C(=O)c2cccc(NC(=O)Nc3ccc(F)cc3)c2O[C@H]1CN(C)C(=O)Nc1cccc2ccccc12 | inactive | inactive | inactive
C[C@@H]1CN([C@@H](C)CO)C(=O)c2c(c3ccccc3n2C)-c2ccccc2CO[C@H]1CN(C)C(=O)Nc1ccc(F)cc1 | inactive | inactive | inactive
C[C@H]1CN([C@@H](C)CO)C(=O)Cc2cc(NC(=O)CCN3CCOCC3)ccc2O[C@H]1CN(C)S(=O)(=O)c1ccc(F)cc1 | inactive | inactive | inactive
COc1ccc(NC(=O)N(C)C[C@H]2OCCCC[C@@H](C)Oc3ccc(NC(=O)c4ccccc4)cc3C(=O)N([C@@H](C)CO)C[C@@H]2C)cc1 | inactive | inactive | inactive
C[C@H]1CN([C@@H](C)CO)S(=O)(=O)c2ccc(C#Cc3ccc(F)cc3)cc2O[C@H]1CN(C)S(C)(=O)=O | inactive | inactive | inactive
C[C@@H]1CCCCO[C@@H](CN(C)S(=O)(=O)c2cccs2)[C@@H](C)CN([C@H](C)CO)C(=O)c2cc(NC(=O)Nc3ccccc3)ccc2O1 | inactive | inactive | inactive
COCC#Cc1ccc2c(c1)O[C@H](CN(C)Cc1ccccc1F)[C@@H](C)CN([C@@H](C)CO)S2(=O)=O | inactive | inactive | inactive
C[C@H]1CN([C@@H](C)CO)C(=O)Cc2cc(NS(=O)(=O)c3cccs3)ccc2O[C@@H]1CN(C)S(=O)(=O)c1ccc(F)cc1 | inactive | inactive | inactive
C[C@@H]1CN([C@H](C)CO)C(=O)Cc2cc(NC(=O)Nc3cccc4ccccc34)ccc2O[C@@H]1CN(C)Cc1ccc(C(=O)O)cc1 | inactive | inactive | inactive
C=C[C@]1(C)C[C@@H](OC(=O)CS[C@@H]2C[C@H]3CC[C@@H](C2)N3C)[C@]2(C)[C@H](C)CC[C@]3(CCC(=O)[C@H]32)[C@@H](C)[C@@H]1O | inactive | inactive | active
Cc1noc(C)c1S(=O)(=O)N(C)C[C@H]1Oc2ccc(NC(=O)Cn3cnnn3)cc2CC(=O)N([C@H](C)CO)C[C@H]1C | inactive | inactive | inactive
C[C@@H]1CCCCO[C@@H](CN(C)Cc2ccc(Cl)c(Cl)c2)[C@@H](C)CN([C@@H](C)CO)C(=O)c2cc(NC(=O)Nc3ccc4c(c3)OCO4)ccc2O1 | active | active | inactive
COc1ccc(CN(C)C[C@H]2Oc3ccc(NS(=O)(=O)c4cn(C)cn4)cc3C(=O)N([C@H](C)CO)C[C@@H]2C)cc1 | inactive | inactive | inactive
C[C@@H]1CCCCO[C@@H](CN(C)Cc2ccccc2)[C@H](C)CN([C@@H](C)CO)C(=O)c2cc(NC(=O)Nc3cccc4ccccc34)ccc2O1 | inactive | inactive | inactive
C[C@@H]1CN([C@@H](C)CO)C(=O)c2cc(NC(=O)NC3CCCCC3)ccc2O[C@@H](C)CCCCO[C@H]1CN(C)Cc1ccc(C(=O)Nc2ccccc2N)cc1 | inactive | inactive | inactive
CCC[C@@H](O)C#Cc1cnc2c(c1)C(=O)N([C@H](C)CO)C[C@H](C)[C@H](CN(C)S(=O)(=O)c1ccc(C#N)cc1)O2 | inactive | inactive | inactive

Structure (SMILES) | cytotoxicity call (HSkMC) | cytotoxicity call (HepG2) | growth inhibition call (S. aureus RN4220)
C[C@H]1CN([C@@H](C)CO)S(=O)(=O)c2ccc(-c3ccncc3)cc2O[C@H]1CN(C)S(=O)(=O)c1ccccc1F | inactive | inactive | inactive
C[C@@H]1CN([C@@H](C)CO)C(=O)c2cccc(NC(=O)c3ccc(-c4nccs4)cc3)c2O[C@H]1CN(C)C(=O)Nc1ccc(F)cc1 | inactive | inactive | inactive
C[C@H](CO)N1C[C@H](C)[C@@H](CN(C)C(=O)Nc2ccc3c(c2)OCO3)OCc2cnnn2CCCC1=O | inactive | inactive | inactive
COc1ccc(NC(=O)Nc2ccc3c(c2)C(=O)N([C@@H](C)CO)C[C@H](C)[C@@H](CN(C)Cc2ccc(Oc4ccccc4)cc2)O3)cc1 | inactive | inactive | inactive
COc1ccc(S(=O)(=O)Nc2ccc3c(c2)CC(=O)N([C@H](C)CO)C[C@H](C)[C@@H](CN(C)S(=O)(=O)c2c(C)noc2C)O3)cc1 | inactive | inactive | inactive
COc1ccc(NC(=O)N(C)C[C@@H]2Oc3ccc(NC(=O)Cn4cnnn4)cc3C(=O)N([C@H](C)CO)C[C@@H]2C)cc1 | inactive | inactive | inactive
CC(C)NC(=O)N(C)C[C@H]1Oc2ccc(NS(=O)(=O)c3ccc(Cl)cc3)cc2C(=O)N([C@H](C)CO)C[C@@H]1C | inactive | inactive | inactive
CO[C@@H]1CN(C)C(=O)c2ccc(NC(=O)C3CCOCC3)cc2OC[C@@H](C)N(C(=O)Nc2ccc(C(F)(F)F)cc2)C[C@H]1C | inactive | inactive | active
C[C@@H]1CCCCO[C@@H](CN(C)S(=O)(=O)c2cccs2)[C@@H](C)CN([C@@H](C)CO)C(=O)c2cc(NC(=O)Cc3ccccc3)ccc2O1 | inactive | inactive | inactive
C[C@@H]1CN([C@H](C)CO)C(=O)Cc2cc(NS(=O)(=O)c3cccs3)ccc2O[C@H]1CN(C)S(=O)(=O)c1cn(C)cn1 | inactive | inactive | inactive
C[C@@H]1CCCCO[C@H](CN(C)Cc2ccncc2)[C@H](C)CN([C@@H](C)CO)C(=O)c2cc(NS(=O)(=O)c3ccc(Cl)cc3)ccc2O1 | inactive | inactive | inactive
COc1ccc(NC(=O)N(C)C[C@H]2OCCCC[C@@H](C)Oc3ccc(NC(=O)Nc4ccc(C(F)(F)F)cc4)cc3C(=O)N([C@@H](C)CO)C[C@@H]2C)cc1 | inactive | inactive | inactive
COc1ccc(NC(=O)N(C)C[C@H]2OCCCC[C@@H](C)Oc3ccc(NC(=O)Nc4ccc(C(F)(F)F)cc4)cc3C(=O)N([C@H](C)CO)C[C@@H]2C)cc1 | inactive | inactive | inactive
COc1ccccc1S(=O)(=O)N[C@H]1CC[C@@H](CCNC(=O)C2CCOCC2)O[C@H]1CO | inactive | inactive | inactive
CCCCC[C@@H](C[C@@H](CC(=O)O)O[C@H]1O[C@@H](CO)[C@@H](O[C@H]2O[C@@H](CO)[C@@H](O)[C@@H](O)[C@@H]2O)[C@@H](O)[C@@H]1O)OC(=O)C[C@H](O)C[C@H](CCCCC)O[C@H]1O[C@@H](CO)[C@@H](O)[C@@H](O)[C@@H]1O | inactive | inactive | inactive
C[C@@H]1CN([C@@H](C)CO)C(=O)c2cc(NC(=O)CCCN(C)C)ccc2O[C@H]1CN(C)C(=O)Nc1ccc(F)cc1 | inactive | inactive | inactive
C[C@@H]1CCCCO[C@@H](CN(C)CC2CCCCC2)[C@H](C)CN([C@@H](C)CO)C(=O)c2cc(NC(=O)c3ccncc3)ccc2O1 | inactive | inactive | inactive
C[C@@H]1CCCCO[C@@H](CN(C)Cc2ccc(C(F)(F)F)cc2)[C@H](C)CN([C@H](C)CO)C(=O)c2cc(NC(=O)CCCN(C)C)ccc2O1 | inactive | inactive | inactive
O=C(N[C@@H]1CC[C@H](CC(=O)N2CCOCC2)O[C@H]1CO)c1ccccn1 | inactive | inactive | inactive
Cc1ccc(S(=O)(=O)N(C)C[C@@H]2Oc3ccc(NC(=O)CCN4CCOCC4)cc3CC(=O)N([C@@H](C)CO)C[C@H]2C)cc1 | inactive | inactive | inactive
C[C@@H]1CN([C@@H](C)CO)C(=O)Cc2cc(NS(=O)(=O)c3ccc(Cl)cc3)ccc2O[C@@H]1CN(C)Cc1ccc(Oc2ccccc2)cc1 | active | active | inactive
C[C@H]1CCCCO[C@H](CN(C)C(=O)c2ccccc2)[C@@H](C)CN([C@@H](C)CO)C(=O)c2cc(NC(=O)C3CCCCC3)ccc2O1 | inactive | inactive | inactive
Nc1ccc2c(c1)nc(CO)n2CCO | inactive | inactive | inactive
CCCC(=O)Nc1ccc2c(c1)OC[C@@H](C)N(Cc1cc(-c3ccccc3)on1)C[C@@H](C)[C@H](OC)CN(C)C2=O | inactive | inactive | inactive
CN1CCN(C(=O)C[C@@H]2CC[C@H]3[C@@H](COC[C@@H](O)CN3C(=O)Nc3cc(Cl)cc(Cl)c3)O2)CC1 | inactive | inactive | inactive
